# Measurements taken from PubChem BioAssay AID504832 (National Center for Advancing Translational Sciences (NCATS), 2011).
# About 18,000 (5.8%) of roughly 310,000 compounds were called active. Inconclusive results, whose numbers are uncertain, are shown with a selection of clear calls. Calls come from the whole dose curve; as a rule, active = well fitted inhibition curve with a large enough effect; inconclusive = small, poorly fitted or top-dose-only effect, or another doubt; inactive = no such curve, though single readings can be large or run the other way. No potency is given beside an inconclusive call; the fits are too rough.
# Experiment: Primary qHTS for delayed death inhibitors of the malarial parasite plastid, 48 hour incubation
# Details: P. falciparum luciferase growth in erythrocytes; series mostly up to 28.7 µM; activity change, negative = inhibition: at the top concentration
# Summary of the method: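 In quantitative HTS format, infected erythrocytes bearing luciferase-reporter parasites were treated for a single generation at 37 C. Luminescence after adding detection reagent served as the growth measure.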
# % is set by controls: 0 for no effect and ±100 for the full control effect; potency is the fitted concentration of half-maximal effect; tags give direction and shape of the fitted curve.
SMILES,"activity change, negative = inhibition",Potency
COc1ccccc1/C=C/C=N/n1c(C)nnc1C,inactive: 23.2%,–
O=C(Cc1ccc(S(=O)(=O)N2CCCC2)s1)Nc1nc2c(s1)CCCC2,–,"inconclusive [inhibitor, single point]"
CC(C)(C)C(=O)O/N=C(\N)Cc1ccc(-c2csnn2)cc1,–,"inconclusive [inhibitor, single point]"
Cc1[nH]c2ccccc2c1/C=N/Nc1nc(Nc2ccc(F)cc2)nc(N2CCOCC2)n1,–,active: 4.15 µM
O=C(COc1cccc([N+](=O)[O-])c1)NN1C(=O)c2ccccc2C1=O,inactive: 8.88%,–
O=C(CN(C(=O)CCC(=O)Nc1ccccn1)c1ccc2c(c1)OCO2)NCc1ccc(F)cc1,–,"inconclusive [inhibitor, partial curve]"
O=C(Nc1ccncc1)c1ccc(NS(=O)(=O)c2cccc(F)c2)cc1,–,"inconclusive [inhibitor, partial curve]"
CCn1c(SCC(=O)N2CCCC2)nnc1-c1ccc(S(=O)(=O)N2CCCCCC2)cc1,–,active: 9.28 µM
Cc1ccc(NC(=O)[C@@H]2CCC(=O)N2C2OC(=O)c3ccccc32)cc1Cl (stereo partly drawn),–,"inconclusive [inhibitor, single point]"
CCOC(=O)c1nn(-c2ccc(F)cc2)c2nc(-c3ccccc3)c(C#N)c(=O)n12,–,"inconclusive [inhibitor, single point]"
CC(C)[C@@H](C(=O)N1CCCC1)N1C(=O)N2CCc3c([nH]c4ccccc34)[C@@]2(C)C1=O,–,"inconclusive [inhibitor, partial curve, poor fit]"
O=C(N/N=C/c1ccc(N2CCOCC2)o1)c1cccc(C(F)(F)F)c1,inactive: -29.8%,–
O=C(Nc1ccccc1C(=O)NC1CC1)c1ccc([N+](=O)[O-])o1,–,"inconclusive [inhibitor, partial curve]"
Cc1cccc(COc2coc(CN3CCN(C(=O)c4ccco4)CC3)cc2=O)c1,–,"inconclusive [inhibitor, partial curve]"
CCC(C)(C)NC(=O)C(c1ccc(F)cc1)N(Cc1ccc(OC)cc1)C(=O)c1cnccn1 (stereo not drawn),–,"inconclusive [inhibitor, single point]"
Cc1coc2c(O)cc3c(c12)OC1(N2CCCCC2)C(=O)NCCCC31 (stereo not drawn),–,active: 11.7 µM
N#Cc1c(/N=C\c2ccc(O)c([N+](=O)[O-])c2)sc2c1CCCC2,inactive: 72%,–
COC(=O)c1[nH]c2ccc(Br)cc2c1NC(=O)CN1CCCc2ccccc21,–,"inconclusive [inhibitor, partial curve]"
